Test results as given in PubChem BioAssay AID504339 (National Center for Advancing Translational Sciences (NCATS), 2011).
Hit rate of the full screen: of about 390,000 compounds, about 17,000 (4.4%) were called active. The shares of active, inactive and inconclusive entries below differ from those in the screen. Calls follow the shape of the dose curve; as a rule, active = well fitted inhibition curve with a large enough effect; inconclusive = small, poorly fitted or top-dose-only effect; inactive = no such curve, though single readings can be large or run the other way. Potencies of inconclusive entries are doubtful fits and often do not repeat.

What follows are compounds tested against Lysine-specific demethylase 4A (Homo sapiens) (UniProt O75164) (assay: qHTS Assay for Inhibitors of JMJD2A-Tudor Domain). Conditions: AlphaScreen JMJD2A-Tudor / H3K4me3 peptide binding; activity change, negative = inhibition: at 114 µM (top of the series).
% is scaled to controls: 0 for no effect and ±100 for the full control effect; potency is read from the fitted curve at half-maximal effect; tags tell the direction and shape of the fitted curve.
Also: nearly all actives have a fitted effect of over 50% in size.

UniProt O75164, sequence (O75164 whole entry, looked up, the tested form may be a part): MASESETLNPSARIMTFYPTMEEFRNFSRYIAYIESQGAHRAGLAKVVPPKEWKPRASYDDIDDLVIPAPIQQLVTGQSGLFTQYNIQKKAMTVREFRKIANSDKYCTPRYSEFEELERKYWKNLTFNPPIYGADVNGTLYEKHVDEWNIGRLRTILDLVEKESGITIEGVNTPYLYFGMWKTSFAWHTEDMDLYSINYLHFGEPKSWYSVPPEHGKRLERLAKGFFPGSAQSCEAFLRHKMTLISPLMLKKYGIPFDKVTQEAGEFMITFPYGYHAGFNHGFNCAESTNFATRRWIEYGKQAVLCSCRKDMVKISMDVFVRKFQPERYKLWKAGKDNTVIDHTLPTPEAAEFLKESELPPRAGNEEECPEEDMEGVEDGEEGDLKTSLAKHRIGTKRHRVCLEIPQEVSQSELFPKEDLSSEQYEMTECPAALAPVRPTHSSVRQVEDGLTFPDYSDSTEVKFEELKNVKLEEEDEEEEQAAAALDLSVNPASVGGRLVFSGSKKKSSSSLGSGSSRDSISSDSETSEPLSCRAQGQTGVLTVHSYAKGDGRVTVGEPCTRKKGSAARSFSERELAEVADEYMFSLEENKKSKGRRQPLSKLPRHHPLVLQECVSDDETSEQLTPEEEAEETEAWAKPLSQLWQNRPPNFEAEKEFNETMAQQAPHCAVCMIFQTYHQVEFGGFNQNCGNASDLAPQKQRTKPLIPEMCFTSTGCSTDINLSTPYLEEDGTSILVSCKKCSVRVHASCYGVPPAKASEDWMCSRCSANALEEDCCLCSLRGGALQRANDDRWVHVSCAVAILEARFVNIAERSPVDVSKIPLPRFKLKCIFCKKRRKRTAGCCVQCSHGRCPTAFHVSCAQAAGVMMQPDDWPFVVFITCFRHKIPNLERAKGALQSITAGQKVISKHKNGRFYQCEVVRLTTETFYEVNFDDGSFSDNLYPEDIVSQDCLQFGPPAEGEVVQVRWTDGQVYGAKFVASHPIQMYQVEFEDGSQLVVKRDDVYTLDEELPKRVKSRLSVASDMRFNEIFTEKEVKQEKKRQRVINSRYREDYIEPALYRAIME

SMILES	activity change, negative = inhibition	Potency
CCOc1ccc(Oc2ccccc2NC(=O)CN2C(=O)NC3(CCCC3)C2=O)cc1	inactive: -8.97%	–
CCOc1ccc(C(=O)NCC(c2ccc3c(c2)OCO3)N2CCN(c3ccc(F)cc3)CC2)cc1 (stereo unspecified)	–	inconclusive: 22.4 µM [inhibitor, full curve]
COCCNC(=O)c1ccc2c(c1)N=C(C)c1cc(C)ccc1S2	inactive: -22.3%	–
c1nc(NCc2ccc3c(c2)OCO3)c2cc(-c3ccc4c(c3)OCCO4)ccc2n1	–	inconclusive: 22.4 µM [inhibitor, full curve]
CC1CCN(C(=O)c2cccc(NC(=O)c3nsc4ccccc34)c2)CC1	–	inconclusive: 25.1 µM [inhibitor, partial curve]
COc1ccc2cc(C#N)c(NC(C)C)nc2c1	–	inconclusive: 89.1 µM [inhibitor, single point]
O=C(CCc1ccco1)CCc1ccco1	–	active: 56.2 µM
CC(NC(=O)Cn1cc([N+](=O)[O-])cn1)c1ccc(C(C)(C)C)cc1 (stereo unspecified)	inactive: -23.5%	–
Cc1cc(C)n(CC(=O)NNC(=O)C2CC(=O)N(Cc3ccccc3Cl)C2)n1 (stereo unspecified)	inactive: -3.68%	–
COc1ccc(CC(=O)N2CCc3cc(OC)c(OC)cc3C2COc2ccc(F)cc2)cc1OC (stereo unspecified)	–	inconclusive: 56.2 µM [inhibitor, partial curve, poor fit]
c1ccc(CCC2Cc3ccccc3N2)cc1 (stereo unspecified)	–	active: 56.2 µM
CN(C)c1ccc(NC(=O)CSC2=Nc3ccccc3C3=NC(CCC(=O)NCc4cccs4)C(=O)N23)cc1 (stereo unspecified)	–	inconclusive: 50.1 µM [inhibitor, partial curve]
O=C(CCCCC(=O)NNC(=O)COc1ccccc1)NNC(=O)COc1ccccc1	inactive: -5.3%	–
Cc1cccc(/C=N/NC(=O)c2c(-c3ccccc3)noc2C)c1O	–	inconclusive: 50.1 µM [inhibitor, partial curve]
COc1ccc(O)c(-c2cc(-c3ccccc3[N+](=O)[O-])[nH]n2)c1	–	inconclusive: 50.1 µM [inhibitor, partial curve]
CN(C)c1ccc(N=Nc2cccc3ccoc23)cc1	–	active: 25.1 µM
CCOC(=O)N1CCN(C(=O)c2ccc3c(c2)N=C(C)c2cc(Cl)ccc2S3)CC1	–	inconclusive: 63.1 µM [inhibitor, partial curve]
Fc1ccc(/C=C/c2nnc(-c3cccs3)o2)cc1	–	inconclusive: 44.7 µM [inhibitor, single point]
COC(=O)c1ccccc1NC(=O)N1CCN(c2ccc(OC)cc2)CC1	–	inconclusive: 39.8 µM [inhibitor, partial curve]
N#Cc1cccc(NC(=O)CCN2C(=O)C3CCCCC3C2=O)c1 (stereo unspecified)	–	inconclusive: 39.8 µM [inhibitor, single point]
CCCc1ccc(Oc2cn[nH]c2-c2ccc(O)cc2O)cc1	–	inconclusive: 44.7 µM [inhibitor, partial curve]
COc1cc(/C=N/N2CCCCC2)cc([N+](=O)[O-])c1O	–	inconclusive: 31.6 µM [inhibitor, partial curve]
CCOC(=O)c1c(Oc2ccc(C(C)=O)cc2)nnc(-c2ccccc2)c1-c1ccccc1	inactive: -25.3%	–
C=CCN(CC=C)CCCOc1ccc(C)cc1OC	–	active: 0.316 µM

SMILES	activity change, negative = inhibition	Potency
CC(=O)c1ccc(NC(=O)Cn2cnc(S(=O)(=O)N3CCC(C)CC3)c2)cc1	–	inconclusive: 22.4 µM [inhibitor, full curve]
COc1ccc(C=C2C(=O)OC(C)(C)OC2=O)cc1OC	inactive: -1.45%	–
Cc1ccc(OCC(=O)OCc2cc(=O)n3nc(C4CC4)sc3n2)cc1	inactive: -10.7%	–
O=C(C1CCCC1)N1CCCC(Nc2ccc(F)cc2)C1 (stereo unspecified)	inactive: -11%	–
O=C(N=Nc1c(O)[nH]c2ccc(Br)cc12)c1cc(-c2cccc3ccccc23)n[nH]1	–	inconclusive: 10 µM [inhibitor, partial curve]
Cc1cc(F)ccc1S(=O)(=O)Nc1ccc(C(=O)N2CCCCCC2)cc1	inactive: -19.3%	–
Cc1ccc(OCCCSc2nc(-c3ccc(C(C)(C)C)cc3)nc3cc(=O)[nH]n23)cc1C	–	active: 25.1 µM
Cc1cc(C(c2nnnn2Cc2ccccc2)N2CCOCC2)c(C)n1-c1ccc2c(c1)OCO2 (stereo unspecified)	–	inconclusive: 50.1 µM [inhibitor, partial curve]
Cc1ccc2nc(C3CCN(C(=O)c4ccco4)CC3)[nH]c2c1	–	inconclusive: 70.8 µM [inhibitor, partial curve]
O=S(=O)(c1cccc(NC(=S)N2CCN(c3ccc(F)cc3)CC2)c1)C(F)F	–	inconclusive: 63.1 µM [inhibitor, partial curve, poor fit]
Cc1nc2ccn(Cc3ccco3)c(=O)c2cc1C(=O)NCc1ccc(F)cc1	inactive: -1.33%	–
O=C(Oc1ccccc1C(=O)Nc1ccccc1)c1ccc(Br)c([N+](=O)[O-])c1	inactive: -35.5%	–
COc1cc(NC(=O)CCC(=O)N2CCN(S(=O)(=O)c3ccc(C)cc3)CC2)cc(OC)c1	inactive: -22.9%	–
O=C(CN1CCN(Cc2ccccc2Cl)C1=O)NC1CCCCCC1	inactive: 7.82%	–
COc1ccc(-c2[nH]nc3c2C(c2ccsc2)C(C#N)=C(N)O3)cc1 (stereo unspecified)	inactive: -23.7%	–
CN(C)c1ccc(C(=O)N(Cc2ccccc2)Cc2ccccc2)cc1	–	inconclusive: 15.8 µM [inhibitor, full curve]
CC(C)(C)c1ccc(/C=N/n2cnnc2)cc1	–	inconclusive: 14.1 µM [inhibitor, full curve, poor fit]
COc1ccc(CN2CCCC(C(=O)N3CCCC3)C2)c(OC)c1 (stereo unspecified)	–	active: 0.891 µM
Cc1ccc(-n2nc(C)c(Sc3ccccc3[N+](=O)[O-])c2N)cc1	inconclusive: -64.9% [inhibitor]	–
CCN(CC)CCCNC(=O)c1[nH]c2ccccc2c1Sc1ccc(Cl)cc1	–	inconclusive: 56.2 µM [inhibitor, partial curve]
Cc1c(CCC(=O)O)c(=O)oc2cc(O)ccc12	inactive: -11.5%	–
COc1cc(Br)cc(CNc2ccc(F)c([N+](=O)[O-])c2)c1O	–	inconclusive: 15.8 µM [inhibitor, full curve]
S=c1nc(-c2ccccc2Br)[nH][nH]1	–	active: 0.794 µM
c1ccc2c(Nc3ccc4c(c3)OCCO4)c3c(nc2c1)CCCC3	inconclusive: -42.4% [inhibitor]	–

SMILES	activity change, negative = inhibition	Potency
CC1(C)CC2(CC(c3ccccc3F)c3ccc(O)c(O)c3O2)NC(=S)N1 (stereo unspecified)	–	active: 39.8 µM
Cc1ccccc1N1CCN(C(=O)C2CCC(=O)N(C3CCCC3)C2)CC1 (stereo unspecified)	inactive: -14.4%	–
O=S(=O)(Nc1cccc(S(=O)(=O)N2CCCCC2)c1)c1ccc(Cl)s1	–	inconclusive: 50.1 µM [inhibitor, partial curve]
O=C(O)/C=C/C(=O)Nc1ccccc1-c1ccccc1	inactive: -13.3%	–
COc1cccc(/C=C/C(=C2/C(=O)N(c3ccccc3)N=C2C)c2ccccc2)c1OC	–	inconclusive: 50.1 µM [inhibitor, partial curve]
Oc1ccc(/C=N/Nc2nc(N3CCCC3)nc(N3CCCC3)n2)cc1O	–	inconclusive: 79.4 µM [inhibitor, single point]
COc1ccc(OC)c(C(=O)NC(CC(N)=O)c2ccc(NCCOc3ccccc3)c([N+](=O)[O-])c2)c1 (stereo unspecified)	–	inconclusive: 50.1 µM [inhibitor, partial curve]
O=[N+]([O-])c1cccc(-c2ccc(/C=N/Nc3nc(N4CCCCC4)nc(N4CCCCC4)n3)o2)c1	–	inconclusive: 5.62 µM [inhibitor, full curve]
Cc1cc(N2C(=O)C(O)=C(C(=O)c3ccc(C)o3)C2c2ccc(OCc3ccccc3)cc2)no1 (stereo unspecified)	–	active: 44.7 µM
O=S(=O)(Nc1nc2ccccc2nc1N1CCN(c2ccccc2)CC1)c1ccc(F)cc1	–	inconclusive: 56.2 µM [inhibitor, partial curve]
Cc1cc(F)c(F)cc1C(=O)N1CCCC1	inactive: -16.8%	–
O=C(O)C1NCCc2ccccc21 (stereo unspecified)	–	inconclusive: 89.1 µM [inhibitor, single point]
CCOc1ncccc1C(=O)OCC(=O)NC1CCCCCC1	inactive: -4.42%	–
CC(C)c1ccc(S(=O)(=O)N2CCN(C(=O)c3ccc(N4CCCC4)c([N+](=O)[O-])c3)CC2)cc1	–	inconclusive: 8.91 µM [inhibitor, full curve]
COc1ccccc1CNc1nccn(-c2ccccc2)c1=O	–	inconclusive: 79.4 µM [inhibitor, partial curve]
O=C1C(=C(O)c2ccccc2)C(=O)c2ccccc21	–	active: 89.1 µM
O=C(N[C@H]1C/C=C\C[C@@H](CC(=O)N(CCO)Cc2ccccc2)C(=O)N[C@H](Cc2c[nH]c3ccccc23)COC1=O)OCC1c2ccccc2-c2ccccc21	–	inconclusive: 63.1 µM [inhibitor, partial curve, poor fit]
Nc1ccc2nc(CCc3ccccc3)[nH]c2c1	–	inconclusive: 50.1 µM [inhibitor, partial curve]
Cc1ccc(N(CC(O)CN2CCCCC2)S(=O)(=O)c2ccccc2)cc1 (stereo unspecified)	–	inconclusive: 56.2 µM [inhibitor, partial curve, poor fit]
COc1ccc(NC(=O)Cn2cc(S(=O)(=O)Cc3ccc(F)cc3)c3ccccc32)cc1OC	–	inconclusive: 56.2 µM [inhibitor, partial curve, poor fit]
Cc1cc(OCC(=O)N2CCc3ccccc3C2)c(C)cc1Br	–	inconclusive: 28.2 µM [inhibitor, partial curve]
Cc1cc(C(=O)N2CCN(c3cccc(Cl)c3)CC2)c(C)o1	–	inconclusive: 89.1 µM [inhibitor, single point]
COc1ccc(C2C(C(=O)c3ccco3)=C(O)C(=O)N2CCCn2ccnc2)c(OC)c1 (stereo unspecified)	–	active: 28.2 µM
